# In the supplement of paper PMC8728848:
# This is one part of the list.
# What was measured:
# Test in all cases: glycan array binding signal (z-score within array); higher = stronger binding
# Conditions in all cases: glycan notation: IUPAC condensed, linker removed
# [1] = biological target: Neu5Ac(a2-3)Gal(b1-3)GalNAc
# Summary of the method: (§1)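 The binding signal is a Z-score computed within each array and averaged over linkers. Arrays of the same protein sequence at different concentrations or buffers were also averaged together. Data originate from 3228 arrays in the Consortium for Functional Glycomics database, kept only where the protein sequence was available.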
# [2] = biological target: Neu5Ac(a2-3)Gal(b1-3)GalNAc(b1-3)Gal(a1-4)Gal(b1-4)Glc
# Summary of the method: as §1
# [3] = biological target: Neu5Ac(a2-3)Gal(b1-3)GalNAc(b1-4)Gal(b1-4)Glc
# Summary of the method: as §1
# [4] = biological target: Neu5Ac(a2-3)Gal(b1-3)GalNAc(b1-4)[Neu5Ac(a2-3)]Gal(b1-4)Glc
# Summary of the method: as §1
# [5] = biological target: Neu5Ac(a2-3)Gal(b1-3)GalNAc(b1-4)[Neu5Ac(a2-8)Neu5Ac(a2-3)]Gal(b1-4)Glc
# Summary of the method: as §1
# [6] = biological target: Neu5Ac(a2-3)Gal(b1-3)GalNAc6S
# Summary of the method: as §1
# [7] = biological target: Neu5Ac(a2-3)Gal(b1-3)GlcNAc
# Summary of the method: as §1
# [8] = biological target: Neu5Ac(a2-3)Gal(b1-3)GlcNAc(b1-2)Man
# Summary of the method: as §1
# [9] = biological target: Neu5Ac(a2-3)Gal(b1-3)GlcNAc(b1-2)Man(a1-3)[GlcNAc(b1-4)][Neu5Ac(a2-3)Gal(b1-3)GlcNAc(b1-2)Man(a1-6)]Man(b1-4)GlcNAc(b1-4)GlcNAc
# Summary of the method: as §1
# [10] = biological target: Neu5Ac(a2-3)Gal(b1-3)GlcNAc(b1-2)Man(a1-3)[Neu5Ac(a2-3)Gal(b1-3)GlcNAc(b1-2)Man(a1-6)]Man(b1-4)GlcNAc(b1-4)GlcNAc
# Summary of the method: as §1
# [11] = biological target: Neu5Ac(a2-3)Gal(b1-3)GlcNAc(b1-2)[Neu5Ac(a2-3)Gal(b1-3)GlcNAc(b1-4)]Man(a1-6)[Neu5Ac(a2-3)Gal(b1-3)GlcNAc(b1-2)Man(a1-3)]Man(b1-4)GlcNAc(b1-4)GlcNAc
# Summary of the method: as §1
# [12] = biological target: Neu5Ac(a2-3)Gal(b1-3)GlcNAc(b1-3)Gal(b1-3)GlcNAc
# Summary of the method: as §1
# [13] = biological target: Neu5Ac(a2-3)Gal(b1-3)GlcNAc(b1-3)Gal(b1-4)GlcNAc
# Summary of the method: as §1
# [14] = biological target: Neu5Ac(a2-3)Gal(b1-3)GlcNAc(b1-3)GalNAc
# Summary of the method: as §1
# [15] = biological target: Neu5Ac(a2-3)Gal(b1-3)GlcNAc(b1-6)GalNAc
# Summary of the method: as §1
# [16] = biological target: Neu5Ac(a2-3)Gal(b1-3)GlcNAc6S
# Summary of the method: as §1
# [17] = biological target: Neu5Ac(a2-3)Gal(b1-3)[Fuc(a1-4)]GlcNAc
# Summary of the method: as §1
# [18] = biological target: Neu5Ac(a2-3)Gal(b1-3)[Fuc(a1-4)]GlcNAc(b1-3)Gal(b1-3)[Fuc(a1-4)]GlcNAc
# Summary of the method: as §1
# [19] = biological target: Neu5Ac(a2-3)Gal(b1-3)[Fuc(a1-4)]GlcNAc(b1-3)Gal(b1-4)[Fuc(a1-3)]GlcNAc
# Summary of the method: as §1
# [20] = biological target: Neu5Ac(a2-3)Gal(b1-3)[GlcNAc(b1-6)]GalNAc
# Summary of the method: as §1
# [21] = biological target: Neu5Ac(a2-3)Gal(b1-3)[Neu5Ac(a2-6)]GalNAc
# Summary of the method: as §1
# [22] = biological target: Neu5Ac(a2-3)Gal(b1-3)[Neu5Ac(a2-6)]GlcNAc(b1-3)[Fuc(a1-3)[Gal(b1-4)]GlcNAc(b1-6)]Gal(b1-4)Glc
# Summary of the method: as §1
# [23] = biological target: Neu5Ac(a2-3)Gal(b1-3)]Neu5Ac(a2-3)Gal(b1-4)]GlcNAc
# Summary of the method: as §1
# [24] = biological target: Neu5Ac(a2-3)Gal(b1-4)Glc
# Summary of the method: as §1
# [25] = biological target: Neu5Ac(a2-3)Gal(b1-4)GlcNAc
# Summary of the method: as §1
# [26] = biological target: Neu5Ac(a2-3)Gal(b1-4)GlcNAc(b1-2)Man
# Summary of the method: as §1
# [27] = biological target: Neu5Ac(a2-3)Gal(b1-4)GlcNAc(b1-2)Man(a1-3)[GlcNAc(b1-4)][Neu5Ac(a2-3)Gal(b1-4)GlcNAc(b1-2)Man(a1-6)]Man(b1-4)GlcNAc(b1-4)GlcNAc
# Summary of the method: as §1
# [28] = biological target: Neu5Ac(a2-3)Gal(b1-4)GlcNAc(b1-2)Man(a1-3)[Neu5Ac(a2-3)Gal(b1-4)GlcNAc(b1-2)Man(a1-6)]Man(b1-4)GlcNAc(b1-4)GlcNAc
# Summary of the method: as §1
# [29] = biological target: Neu5Ac(a2-3)Gal(b1-4)GlcNAc(b1-2)Man(a1-3)[Neu5Ac(a2-3)Gal(b1-4)GlcNAc(b1-2)Man(a1-6)]Man(b1-4)GlcNAc(b1-4)[Fuc(a1-6)]GlcNAc
# Summary of the method: as §1
# [30] = biological target: Neu5Ac(a2-3)Gal(b1-4)GlcNAc(b1-2)Man(a1-3)[Neu5Ac(a2-6)Gal(b1-4)GlcNAc(b1-2)Man(a1-6)]Man(b1-4)GlcNAc(b1-4)GlcNAc
# Summary of the method: as §1
# [31] = biological target: Neu5Ac(a2-3)Gal(b1-4)GlcNAc(b1-2)[Neu5Ac(a2-3)Gal(b1-4)GlcNAc(b1-4)]Man(a1-3)[GlcNAc(b1-4)][Neu5Ac(a2-3)Gal(b1-4)GlcNAc(b1-2)[Neu5Ac(a2-3)Gal(b1-4)GlcNAc(b1-6)]Man(a1-6)]Man(b1-4)GlcNAc(b1-4)GlcNAc
# Summary of the method: as §1
# [32] = biological target: Neu5Ac(a2-3)Gal(b1-4)GlcNAc(b1-2)[Neu5Ac(a2-3)Gal(b1-4)GlcNAc(b1-4)]Man(a1-3)[GlcNAc(b1-4)][Neu5Ac(a2-3)Gal(b1-4)GlcNAc(b1-4)Man(a1-6)]Man(b1-4)GlcNAc(b1-4)GlcNAc
# Summary of the method: as §1
# [33] = biological target: Neu5Ac(a2-3)Gal(b1-4)GlcNAc(b1-2)[Neu5Ac(a2-3)Gal(b1-4)GlcNAc(b1-6)]Man(a1-6)[Neu5Ac(a2-3)Gal(b1-4)GlcNAc(b1-2)Man(a1-3)][GlcNAc(b1-4)]Man(b1-4)GlcNAc(b1-4)GlcNAc
# Summary of the method: as §1
# [34] = biological target: Neu5Ac(a2-3)Gal(b1-4)GlcNAc(b1-3)Gal
# Summary of the method: as §1
# [35] = biological target: Neu5Ac(a2-3)Gal(b1-4)GlcNAc(b1-3)Gal(b1-3)GlcNAc
# Summary of the method: as §1
# [36] = biological target: Neu5Ac(a2-3)Gal(b1-4)GlcNAc(b1-3)Gal(b1-4)GlcNAc
# Summary of the method: as §1
# [37] = biological target: Neu5Ac(a2-3)Gal(b1-4)GlcNAc(b1-3)Gal(b1-4)GlcNAc(b1-2)Man(a1-3)[Neu5Ac(a2-3)Gal(b1-4)GlcNAc(b1-3)Gal(b1-4)GlcNAc(b1-2)Man(a1-6)]Man(b1-4)GlcNAc(b1-4)GlcNAc
# Summary of the method: as §1
binder,measurement,setting,value
B160 (Bifidobacterium sp) (protein) MVSHNKRIVAALAAVAAMGIGLAGCGGSDTAGDTKSGSDGGVVNITYMHRLPDSEGMTLVNDIVAKWNKEHPNIQVKATKFDGNAADMIKKLETDVKAGNAPDLAQVGYAEVPEVFTKGLLQDVTDEAAKYKDDFASGPFALMQVDGKTYGLPQDTGPLTYFYNAAEFEKLGITVPKTADELIETAKKTAAQGKYIMTFTPDEAMMMMSGQAGASGPWYKVDGNSWVVNTQTKGSKAVADVYQQLIDNKAALTNPRWDASFDNSIQSGQLIGTVAAAWEAPLFIDSAGGTGAGEWKVTQLGDWFGNGTKTGANGGSGVAVLKGSKHPAEAMEFLDWFNTQVDDLVSQGLVVAATTADAKTPQKWSDYFSGQDVMAEFKTANDNMGDFTYMPGFSAVGAAMKQTAAKAADGSAKVSDVFDTAQKTSVDTLKNLGLSVKE,glycan array binding signal (z-score),[1],-0.204
same,glycan array binding signal (z-score),[2],-0.163
same,glycan array binding signal (z-score),[3],-0.19
same,glycan array binding signal (z-score),[4],-0.16
same,glycan array binding signal (z-score),[5],-0.156
same,glycan array binding signal (z-score),[6],-0.165
same,glycan array binding signal (z-score),[7],-0.172
same,glycan array binding signal (z-score),[8],-0.194
same,glycan array binding signal (z-score),[9],-0.177
same,glycan array binding signal (z-score),[10],-0.173
same,glycan array binding signal (z-score),[11],-0.099
same,glycan array binding signal (z-score),[12],-0.167
same,glycan array binding signal (z-score),[13],-0.164
same,glycan array binding signal (z-score),[14],-0.188
same,glycan array binding signal (z-score),[15],-0.161
same,glycan array binding signal (z-score),[16],-0.173
same,glycan array binding signal (z-score),[17],-0.184
same,glycan array binding signal (z-score),[18],-0.135
same,glycan array binding signal (z-score),[19],-0.153
same,glycan array binding signal (z-score),[20],-0.163
same,glycan array binding signal (z-score),[21],-0.176
same,glycan array binding signal (z-score),[22],-0.173
same,glycan array binding signal (z-score),[23],-0.167
same,glycan array binding signal (z-score),[24],-0.173
same,glycan array binding signal (z-score),[25],-0.174
same,glycan array binding signal (z-score),[26],-0.13
same,glycan array binding signal (z-score),[27],-0.16
same,glycan array binding signal (z-score),[28],-0.149
same,glycan array binding signal (z-score),[29],-0.158
same,glycan array binding signal (z-score),[30],-0.194
same,glycan array binding signal (z-score),[31],-0.153
same,glycan array binding signal (z-score),[32],-0.109
same,glycan array binding signal (z-score),[33],-0.18
same,glycan array binding signal (z-score),[34],-0.166
same,glycan array binding signal (z-score),[35],-0.171
same,glycan array binding signal (z-score),[36],-0.176
same,glycan array binding signal (z-score),[37],-0.121
